Key:
[1] = molecular target: T1, K-Ras G12V (Homo sapiens, UniProt P01116, G12V); experiment: SOS1 catalyzed nucleotide exchange assay (GDP form K-Ras), TR-FRET; details: read-out: Biochemical assays, IC50, K-Ras G12V GDP
Procedure: (§1) The parameters were F486: Excitation 340 nm, Emission 486 nm, Lag time 100 pas, Integration time 200 pas; F515: Excitation 340 nm, Emission 515 nm, Lag time 100 pas, Integration time 200 pas. TR-FRET ratios for each individual wells were calculated by equation: TR-FRET ratio=(Signal F515/Signal F486)*10000.

[2] = molecular target: T2, K-Ras WT (Homo sapiens, UniProt P01116); experiment: as above; details: read-out: Biochemical assays, IC50, K-Ras WT GDP
Procedure: as §1

[3] = molecular target: T3, K-Ras Q61H (Homo sapiens, UniProt P01116, Q61H); experiment: as above; details: read-out: Biochemical assays, IC50, K-Ras Q61H GDP
Procedure: as §1

[4] = molecular target: T4, K-Ras G12R (Homo sapiens, UniProt P01116, G12R); experiment: as above; details: read-out: Biochemical assays, IC50, K-Ras G12R GDP
Procedure: as §1

[5] = molecular target: T5, K-Ras G12A (Homo sapiens, UniProt P01116, G12A); experiment: as above; details: read-out: Biochemical assays, IC50, K-Ras G12A GDP
Procedure: as §1

[6] = molecular target: T1, K-Ras G12V; experiment: GTP-K-Ras (GppNp-K-Ras) and cRAF interaction assay, HTRF; details: read-out: Biochemical assays, IC50, K-Ras G12V GppNp
Description: (§2) GppNp is an analog of GTP.

[7] = molecular target: T2, K-Ras WT; experiment: as above; details: read-out: Biochemical assays, IC50, K-Ras WT GppNp
Description: as §2

[8] = molecular target: K-Ras G12D (Homo sapiens, UniProt P01116, G12D); experiment: as above; details: read-out: Biochemical assays, IC50, K-Ras G12D GppNp
Description: as §2

[9] = molecular target: T3, K-Ras Q61H; experiment: as above; details: read-out: Biochemical assays, IC50, K-Ras Q61H GppNp
Description: as §2

[10] = molecular target: T4, K-Ras G12R; experiment: as above; details: read-out: Biochemical assays, IC50, K-Ras G12R GppNp
Description: as §2

[11] = molecular target: T5, K-Ras G12A; experiment: as above; details: read-out: Biochemical assays, IC50, K-Ras G12A GppNp
Description: as §2

Compound	IC50 [1]	IC50 [2]	IC50 [3]	IC50 [4]	IC50 [5]	IC50 [6]	IC50 [7]	IC50 [8]	IC50 [9]	IC50 [10]	IC50 [11]
C#Cc1c(F)ccc2cc(O)cc(-c3ncc4c(N(C)[C@@H]5C[C@H]5F)nc(OC[C@@]56CCCN5C[C@H](F)C6)nc4c3F)c12.O=C(O)C(F)(F)F (single isomer, unassigned) [Compound 3]	2.77 nM	2.4 nM	2.42 nM	3.25 nM	3.83 nM	77.9 nM	112 nM	28.3 nM	45.3 nM	30.3 nM	272 nM
C#Cc1c(F)ccc2cc(O)cc(-c3nc(OC)c4c(N(C)C5CC5)nc(OC[C@@]56CCCN5C[C@H](F)C6)nc4c3F)c12 [Compound 2, 4-(4-(cyclopropyl(methyl)amino)-8-fluoro-2-(((2R,7aS)-2-fluorotetrahydro-1H-pyrrolizin-7a(5H)-yl)methoxy)-5-methoxypyrido[4,3-d]pyrimidin-7-yl)-5-ethynyl-6-fluoronaphthalen-2-ol]		8.69 nM									

Reference: US20240376128A1, “N-CYCLOPROPYLPYRIDO [4, 3-D] PYRIMIDIN-4-AMINE DERIVATIVES AND USES THEREOF” (Jacobio Pharmaceuticals Co., Ltd., priority 2021, published 2024)
